According to PubChem BioAssay AID652104 (National Center for Advancing Translational Sciences (NCATS), 2013):
Where “and” joins values, the source holds several entries; their conditions need not be identical. Identical values can stand only once. In all, about 410,000 compounds went through this assay and about 7,200 (1.8%) were called active. Inconclusive results, whose numbers are uncertain, are shown with a selection of clear calls. Calls follow the shape of the dose curve; as a rule, active = well fitted activation curve with a large enough effect; inconclusive = small, poorly fitted or top-dose-only effect, or another doubt; inactive = no such curve, though single readings can be large or run the other way. A potency beside an inconclusive call is a rough fit, not a confirmed value. More than one record can exist for a structure, and the calls need not agree.

Assay: qHTS of TDP-43 Inhibitors; also: nearly all actives have a fitted effect of over 50% in size; as to growth rescue (activation): % of control where 0% means no effect
Conditions: TDP-43 expressing yeast growth rescue, BacTiter-Glo, 24 h; growth rescue (activation): at 46.1 µM (top of the series) unless noted
Method in brief: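 Growth rescue of TDP-43-toxic yeast measured as ATP luminescence (BacTiter-Glo). Cells grown to mid-log in raffinose, induced in galactose at OD600=0.02, exposed to compound 24 hr at 30 deg C.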
Potency is read from the fitted curve at half-maximal effect; tags tell the direction and shape of the fitted curve.

| SMILES | growth rescue (activation) | Potency |
| --- | --- | --- |
| COc1ccc(Cl)cc1NC(=O)c1c(C(=O)Nc2cccc(C)c2C)sc2nc(C)cc(=O)n12 | inactive: 20.5% |  |
| c1ccc(CSc2nnc(-c3ccco3)n2Cc2ccco2)cc1 |  | inconclusive: 35.5 µM [activator, single point] |
| CCCOc1ccc(F)cc1-c1cc(C(=O)Nc2ccccc2)[nH]n1 |  | inconclusive: 0.562 µM [activator, full curve, poor fit] |
| Cc1ccc2nc(N3CCN(C(=O)C4COc5ccccc5O4)CC3)sc2c1 (stereo unspecified) |  | active: 20 µM |
| CC(=O)Nc1ccc(S(=O)(=O)N2CCN(c3cc(C)ccc3C)CC2)cc1 |  | active: 28.2 µM |
| CCOC(=O)c1c(C)nc(C)c2c(=O)oc3ccccc3c12 |  | inconclusive: 22.4 µM [activator, single point] |
| COC(=O)c1ccc(CSc2nc3c([nH]c4ccccc43)c(=O)n2-c2cccc(OC)c2)o1 | inactive: 29.4% |  |
| COc1cc(OC)cc(C(=O)NC2CCSc3ccccc32)c1 (stereo unspecified) |  | inconclusive: 15.8 µM [activator, single point] |
| Cc1cccc(/C=N/NC(=O)c2cc3c(s2)-c2ccccc2CC3)c1 |  | inconclusive: 15.8 µM [activator, partial curve] |
| COc1c(Cl)cc(C(=O)NCc2ccco2)cc1Cl |  | inconclusive: 35.5 µM [activator, single point] |
| CSc1nnc([C@H](C)NC(=O)OC(C)(C)C)o1 |  | inconclusive: 20 µM [activator, single point] |
| Cc1ccc(C2c3cccn3CCN2S(=O)(=O)c2ccc([N+](=O)[O-])cc2)cc1 (stereo unspecified) |  | inconclusive: 3.98 µM [activator, partial curve] |
| Cc1cc(C(=O)Nc2ccc3[nH]ccc3c2)no1 |  | inconclusive: 12.6 µM [activator, partial curve] |
| COc1ccccc1N1CCN(C(=O)CCSCc2ccccc2F)CC1 |  | active: 20 µM |
| CC1=CC(=O)N(c2ccn(C)n2)C1=O |  | inconclusive: 20 µM [activator, partial curve] |
| COc1ccccc1CNC(=O)c1ccc(-c2ccccc2C(F)(F)F)o1 |  | inconclusive: 22.4 µM [activator, single point] |
| COCCCn1c(=N)c(S(=O)(=O)c2ccccc2)cc2c(=O)n3cccc(C)c3nc21 | inactive: 25.5% |  |
| CC(C)C(=O)NC(=S)Nc1ccccc1F |  | inconclusive: 10 µM [activator, single point] |
| CC(=O)c1sc(NC(=O)CCOc2ccccc2)nc1C |  | inconclusive: 4.47 µM [activator, partial curve] |
| COc1cccc(NC(=O)c2ccccc2C(F)(F)F)c1 |  | inconclusive: 11.2 µM [activator, single point] |
| COc1c(CC=C(C)C)cc(C2CC(=O)c3c(O)cc(O)cc3O2)cc1CC=C(C)C (stereo unspecified) |  | inconclusive: 31.6 µM [activator, single point] |
| c1ccc(CN=C2NN=C(c3ccccc3)CS2)cc1 |  | active: 12.6 µM |
| CC(=O)NCC1COc2ccccc2O1 (stereo unspecified) | inactive: 18.2% |  |
| CC(=O)N1c2ccc(S(=O)(=O)N(C)CC(=O)NC3CCCC3)cc2CC1C (stereo unspecified) |  | inconclusive: 7.08 µM [activator, partial curve, poor fit] |

| SMILES | growth rescue (activation) | Potency |
| --- | --- | --- |
| O=C(NNC(=S)Nc1cccc(C(F)(F)F)c1)c1ccncc1 |  | inconclusive: 2.82 µM [activator, partial curve] |
| Cc1ccc(-c2ccc(=O)n(CC(=O)NC(C)c3ccccc3)n2)cc1 (stereo unspecified) |  | inconclusive: 3.98 µM [activator, partial curve] |
| CC(C)Nc1nc(NC(C)C)nc(SCCOC(=O)Nc2ccc(Cl)cc2Cl)n1 |  | active: 15.8 µM |
| O=C(NCc1ccccc1)c1ccccc1 | inactive: 19.2% |  |
| COc1ccc(-c2cc(NCc3ccc(C)cc3)n3cnnc3n2)cc1 |  | active: 11.2 µM |
| O=C(COc1ccccc1F)NCc1ccc(-n2cccc2)cc1 |  | inconclusive: 3.16 µM [activator, partial curve] |
| CCC1CN(C(=O)NCc2cccc(OC)c2)c2ccccc2O1 (stereo unspecified) |  | inconclusive: 12.6 µM [activator, partial curve] and inconclusive: 14.1 µM [activator, single point] |
| COc1cccc(N2CCN(CC(=O)C34CC5CC(CC(C5)C3)C4)CC2)c1 |  | inconclusive: 10 µM [activator, partial curve] |
| COc1cc(C(=O)COC(=O)c2ccc([N+](=O)[O-])o2)cc(OC)c1OC |  | inconclusive: 12.6 µM [activator, partial curve] |
| CC1CC(C)(C)CC2(C1)NC(=S)N(c1ccccc1)N2 (stereo unspecified) |  | inconclusive: 12.6 µM [activator, partial curve] |
| CCOC(=O)c1ccc(N2C(=O)c3[nH]nc(-c4ccccc4)c3C2c2cccs2)cc1 (stereo unspecified) | inactive: 9.29% |  |
| O=C(CN1C(=O)COc2ccc(S(=O)(=O)Nc3ccccc3)cc21)NCc1ccccc1Cl |  | inconclusive: 0.501 µM [activator, full curve, poor fit] |
| Cc1cccc(C)c1NC(=O)CSc1ncnc2[nH]ncc12 |  | inconclusive: 14.1 µM [activator, partial curve] |
| O=C(N/N=C/C=C\c1cccc([N+](=O)[O-])c1)c1ccccn1 |  | inconclusive: 35.5 µM [activator, single point] |
| COc1ccc2c(c1)CCc1c(C(=O)N3CCCCCC3)noc1-2 |  | inconclusive: 14.1 µM [activator, single point] |
| CCOc1ccc(C(=O)Nc2c(C(N)=O)oc3ccccc23)cc1 |  | inconclusive: 15.8 µM [activator, partial curve] |
| Cc1ccc(NC(=O)Cn2c(=O)n(Cc3nc(-c4ccccc4)no3)c(=O)c3cc4c(cc32)OCO4)cc1C | inactive: -9.12% |  |
| CCOc1ccc(OCC)c(NC(=O)CN(c2ccc(C)cc2)S(=O)(=O)c2c(C)n[nH]c2C)c1 |  | inconclusive: 0.891 µM [activator, full curve] |
| CC(=O)Oc1ccccc1C1OC(=O)c2ccccc2N1C(C)=O (stereo unspecified) |  | inconclusive: 22.4 µM [activator, partial curve] |
| C=CCN(CC=C)C(=S)NC(=O)/C=C/c1ccc(OC)cc1 |  | inconclusive: 20 µM [activator, partial curve, poor fit] |
| Cc1c(Cc2c(Cl)cccc2Cl)c(=O)ccn1C(C)c1ccccc1 (stereo unspecified) |  | inconclusive: 35.5 µM [activator, single point] |
| Cc1cccc(OCCN2C(=O)c3ccccc3C2=O)c1 |  | inconclusive: 6.31 µM [activator, single point] |
| NC(=O)Nc1ccc(C(=O)OCC(=O)c2c[nH]c3ccccc23)cc1 | inactive: -12.8% |  |
| Fc1ccccc1CSc1nnc(-c2cccs2)o1 |  | inconclusive: 17.8 µM [activator, single point] |

| SMILES | growth rescue (activation) | Potency |
| --- | --- | --- |
| CCc1ccc(NC(=O)c2c(Cl)nc(C)c(Cl)c2C)cc1 |  | inconclusive: 17.8 µM [activator, partial curve] |
| NC(=Nc1ccc(Cl)cc1)c1ccccc1 | inactive: -4.2% |  |
| Oc1c(C(c2ccccc2)N2CCOCC2)ccc2ccccc12 (stereo unspecified) |  | inconclusive: 35.5 µM [activator, single point] |
| Cc1ccc(C(=O)O/N=C2\CC3CCC2(C)C3(C)C)cc1 (stereo unspecified) |  | inconclusive: 6.31 µM [activator, single point] |
| O=C(CSCc1nc2cccnc2n1C1CCCCC1)NCc1cccc(Br)c1 |  | inconclusive: 35.5 µM [activator, single point] |
| NC(=O)c1sc2nc(N3CCOCC3)c3c(c2c1N)CCCC3 | inactive: 16.9% |  |
| Cc1ccc2scc(N3CCN(c4ccccc4)CC3)c(=O)c2c1 |  | inconclusive: 6.31 µM [activator, partial curve, poor fit] |
| Cc1cc2nccc(-c3ccc(F)cc3)n2n1 |  | inconclusive: 15.8 µM [activator, partial curve] |
| CNC(=S)N(CCc1ccccc1)Cc1cc2cc(OC)c(OC)cc2[nH]c1=O | inactive: 5.92% |  |
| COC(=O)[C@@]12C[C@@H](CC(=O)NCc3cccc4ccccc34)C(=O)N(Cc3ccc4c(c3)OCO4)C1=CCC(C)(C)C2 | inactive: -15.3% |  |
| CCN(C(=O)Cn1c(SCc2ccccc2F)nc2cccnc21)c1ccccc1 | inactive: 2.52% |  |
| CCOc1cc(C(=O)N=c2sccn2C)cc(Br)c1OC |  | inconclusive: 12.6 µM [activator, single point] |
| COc1cccc(C(=O)c2sc(Nc3ccc(C)cc3C)c(S(=O)(=O)c3ccccc3)c2N)c1 | inactive: 20.2% |  |
| N/C(=N\OC(=O)c1ccc(Br)cc1)c1ccncc1 |  | inconclusive: 20 µM [activator, single point] |
| Cc1cc(NC(=O)Nc2cccc(C(F)(F)F)c2)no1 |  | inconclusive: 12.6 µM [activator, single point] |
| c1ccc(C[C@H]2COc3c4ccccc4nn32)cc1 |  | inconclusive: 35.5 µM [activator, single point] |
| CCOc1ccc(S(=O)(=O)Nc2ccc(S(=O)(=O)N3CCCC3)cc2)cc1 |  | inconclusive: 20 µM [activator, single point] |
| O=C(N/N=C\c1ccccn1)C1COc2cc3ccccc3cc2O1 (stereo unspecified) | inactive: 8.9% |  |
| Oc1ccc(-c2csc(-c3ccccc3)n2)cc1O |  | inconclusive: 3.16 µM [activator, single point] |
| CCn1c(SCC(=O)Nc2nccc(C)n2)nc2ccccc21 | inactive: 12% |  |
| CCOc1ccc(/C=C/c2nc(C#N)c(N(C)C)o2)cc1 |  | inconclusive: 12.6 µM [activator, partial curve] |
| O=C(/C=C/c1ccccc1)Nn1c(-c2cccs2)nc2ccccc2c1=O | inactive: 16.2% |  |
| Cc1ccc(C)c(CSc2c(C(C)C)cnc3c2c(=O)n(C)c(=O)n3C)c1 | inactive: 23.7% |  |
